# Measured values: the BET-seq Pho4 binding data (Le et al. 2018)
# The list shows a part of the results. These are noisy estimates, calculated here from bound and input reads.
# Biological target: T1, Pho4 (S. cerevisiae) (UniProt P07270)
# T1 sequence: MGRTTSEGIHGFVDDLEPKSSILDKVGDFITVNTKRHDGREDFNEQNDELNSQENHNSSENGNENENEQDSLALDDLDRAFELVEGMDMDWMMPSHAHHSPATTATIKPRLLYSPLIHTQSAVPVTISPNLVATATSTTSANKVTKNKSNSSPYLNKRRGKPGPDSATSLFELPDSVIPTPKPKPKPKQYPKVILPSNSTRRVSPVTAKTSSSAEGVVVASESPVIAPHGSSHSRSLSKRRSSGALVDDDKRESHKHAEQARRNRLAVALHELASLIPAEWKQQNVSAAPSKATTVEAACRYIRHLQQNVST
# Experiment: relative binding free energy (BET-seq); higher = weaker binding
# Details: reference: library average
row,Sequence,relative binding free energy [kcal/mol]
1,GTGGACACGTGATTGT,0.22
2,CTCTTCACGTGGGTTT,0.18
3,AATTACACGTGGAGTG,0.15
4,GGTCACACGTGGGGAT,-0.02
5,CTTGTCACGTGTTAAT,0.18
6,TTTTACACGTGAGGCA,0.34
7,ACTGACACGTGATTGG,0.19
8,GGTGCCACGTGTTGCT,-0.07
9,TCGAACACGTGCTGGG,0.2
10,TTAATCACGTGGAAGA,0.22
11,GGGTTCACGTGCCGGA,0.21
12,TTGTGCACGTGCGGGT,-0.02
13,GGCGTCACGTGTGATA,0.18
14,TATGTCACGTGGTGTA,-0.1
15,TTTTTCACGTGCGGCA,0.3
16,GTGTACACGTGTAATG,0.2
17,CTAGACACGTGGATTT,0.21
18,TATGTCACGTGGCGTG,0.08
19,GGACGCACGTGAGTGG,0.11
20,TGGTTCACGTGGAGGG,0.22
21,ACGTACACGTGCGTGT,-0.01
22,CGCGTCACGTGTGGGC,0.11
23,AATGGCACGTGGTCTT,-0.16
24,GCGTGCACGTGTGGTC,0.16
25,GTGTGCACGTGTGGAT,0.1

row,Sequence,relative binding free energy [kcal/mol]
1,GGTTTCACGTGGCCAT,0.3
2,GGGTGCACGTGAGAAG,0.38
3,TGTGTCACGTGGCGAT,0.05
4,GGTGGCACGTGACGGG,0.08
5,GTATTCACGTGGTTTC,0.32
6,AAATGCACGTGGTTAG,-0.19
7,GTTGTCACGTGTCGTA,0.09
8,AGGGTCACGTGGGTAG,0.02
9,TCGAGCACGTGTGGGG,-0.06
10,GGCAACACGTGAGGGG,0.19
11,ACTTGCACGTGGGGTG,-0.19
12,GTGTCCACGTGGTAAT,0.16
13,TGTGTCACGTGTCCGA,0.06
14,TATTGCACGTGGCTTT,-0.03
15,AGTTTCACGTGGTCCT,0.27
16,AGGAGCACGTGAGCGG,0.13
17,TGGAACACGTGAAGGT,0.19
18,AGGAGCACGTGCTGTG,-0.15
19,TTTAGCACGTGCTTTT,-0.04
20,CGTGTCACGTGATGAT,0.26
21,ATGTTCACGTGTGTGA,0.24
22,TTGCTCACGTGGGGCG,0.11
23,AATTCCACGTGTAGGT,0.18
24,TGGACCACGTGAATGT,0.34
25,GTTGACACGTGTTAAG,0.09

row,Sequence,relative binding free energy [kcal/mol]
1,GTTAGCACGTGGAGGT,-0.01
2,TGTAACACGTGAGATA,0.24
3,GGGATCACGTGTAAAG,0.22
4,TTGATCACGTGATTCG,0.38
5,AGTTACACGTGGCTGG,0.09
6,AGTTACACGTGAAGAA,0.42
7,TGGTCCACGTGCTGGT,-0.01
8,GAGGGCACGTGTCTGT,-0.21
9,GGTAACACGTGGAAGA,0.15
10,GGCGGCACGTGTTTAA,-0.01
11,TTAGTCACGTGGCTGC,0.06
12,TCCGTCACGTGAATGG,0.41
13,AACTGCACGTGATGGA,0.15
14,TATAGCACGTGGTGCT,-0.25
15,ATACGCACGTGAGTTG,0.02
16,GTGGGCACGTGAATTG,0.2
17,GCTTGCACGTGGATGC,0.16
18,TGTCGCACGTGATCGT,0
19,TGGGACACGTGAGTTC,0.35
20,AGGGGCACGTGCGGTG,-0.16
21,TGTCGCACGTGGCGAG,-0.13
22,AAGGTCACGTGTTAAA,0.27
23,AGGAGCACGTGTCGGT,-0.01
